Source: PMC7819943, “Rice protein-binding microarrays: a tool to detect cis-acting elements near promoter regions in rice”
This is one part of the list.

The sequences below were run against T1, OsWOX13 (Oryza sativa, UniProt Q5QMM3 1-267) (assay: protein-binding microarray (RPBM); PBS, 2% BSA, 51.3 ng/ul salmon testes DNA, 50 uM zinc acetate, 200 nM TF, 25 C, 1 h; high values mean tight binding). Conditions: protein: recombinant; tags: N-terminal polyhistidine and DsRed monomer fusion (pET32a); label: CyDye5-dUTP incorporated in the synthesized complementary strand; 3' TTTTT single-stranded linker to array surface; dsDNA, one strand shown.
T1 sequence: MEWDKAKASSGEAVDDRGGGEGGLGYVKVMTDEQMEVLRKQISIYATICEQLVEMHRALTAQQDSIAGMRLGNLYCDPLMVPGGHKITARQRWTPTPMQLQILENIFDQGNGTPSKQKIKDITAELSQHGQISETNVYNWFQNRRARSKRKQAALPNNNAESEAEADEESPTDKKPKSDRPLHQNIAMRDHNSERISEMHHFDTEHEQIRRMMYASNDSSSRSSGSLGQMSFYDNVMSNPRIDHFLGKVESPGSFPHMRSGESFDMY
In short: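 Binding signal is defined as the fluorescence intensity of each feature in arbitrary units, read on an Axon 4000B scanner. Transcription factors with N-terminal polyhistidine and DsRed fusions came from E. coli BL21-CodonPlus and were purified on Ni–NTA. They were incubated at 200 nM for 1 h at 25 °C on a custom Agilent array that had been made double-stranded with Cy5-dUTP, with 50 µM zinc acetate present, and the array was washed.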
With “TTTTATTTGGCGTAAATTGAGCGTTGTAAGTTATTGGCTACGGAGTCACCTAGTGCAG” the binding signal was 4080 fluorescence intensity (a.u.).
For “AAACAGTTTTCCCCAAAATTGATTGTAAATATACATATACCGGAGTCACCTAGTGCAG”, the binding signal was 14900 fluorescence intensity (a.u.).
“GAAGATTGGATAGTCACAGTGTGTGGAGAAATTGAACGACCGGAGTCACCTAGTGCAG” was tested, and the binding signal was 24600 fluorescence intensity (a.u.).
“GTGTCCATCAATCCATCCATCCATGCTTATTTTCTCAAGACGGAGTCACCTAGTGCAG” was tested, and the binding signal was 7760 fluorescence intensity (a.u.).
For “GTAACTATAGATAATTTGGAGCTAGTAGTTGGTTATACTACGGAGTCACCTAGTGCAG”, the binding signal was 3270 fluorescence intensity (a.u.).
In the case of “CACGTGCCAATCATGATCTAGCTACATCTAGACAAGGGGACGGAGTCACCTAGTGCAG”, the binding signal is reported as 10800 fluorescence intensity (a.u.).
“ATTTTAATAAAATTTGGTCACATTTAAACAAAATTTGCCACGGAGTCACCTAGTGCAG” was tested, and the binding signal was 4240 fluorescence intensity (a.u.).
For “CTCAGATTTGATGTGACACATTTGCATCAAGAAGCAAAGGCGGAGTCACCTAGTGCAG”, the binding signal was 11700 fluorescence intensity (a.u.).
In the case of “AAGTACTGATATCTGTGACATAATTTGAATTGGTATCTCACGGAGTCACCTAGTGCAG”, the binding signal is reported as 5320 fluorescence intensity (a.u.).
With “TTTTAATTAGAATCTAATTAATTGTGGGTTGTTTCAGCTTCGGAGTCACCTAGTGCAG” the binding signal was 40500 fluorescence intensity (a.u.).
In the case of “TGCACTAGTGACAGATTAATTAAGCTCAAAAGATTTGTCACGGAGTCACCTAGTGCAG”, the binding signal is reported as 10800 fluorescence intensity (a.u.).
For “GAAAATTTGATGAAAAGTCACTCTCAATCGTGGGCTTCAACGGAGTCACCTAGTGCAG”, the binding signal was 4510 fluorescence intensity (a.u.).
For “GACAGTTAATCAAGATCATTTACTCTCCCCTTCCCATTTTCGGAGTCACCTAGTGCAG”, the binding signal was 4540 fluorescence intensity (a.u.).
For “AAAATTTTAAATGTGGCTATGATAGGCTAAATAGAAAACACGGAGTCACCTAGTGCAG”, the binding signal was 6150 fluorescence intensity (a.u.).
“TATTCTCACTAATTTGTATAACTAACCTCATGAAACATGTCGGAGTCACCTAGTGCAG” was tested, and the binding signal was 4840 fluorescence intensity (a.u.).
With “ACAAACTGACACCGGAGAAATTTGATCTACTCAAGGGCCACGGAGTCACCTAGTGCAG” the binding signal was 7800 fluorescence intensity (a.u.).
“CCCAATCACCATTTTCACCCCACTTTGTCACCTAGCAAGGCGGAGTCACCTAGTGCAG” was tested, and the binding signal was 5650 fluorescence intensity (a.u.).
“TTTCCCCATCTATCCCTAGATTGGCATAGTGTCTTCTAATCGGAGTCACCTAGTGCAG” was tested, and the binding signal was 6980 fluorescence intensity (a.u.).
“TCTAGCTAATCAGTATAGACAGTAGTGAGAACAGTTCAGACGGAGTCACCTAGTGCAG” was tested, and the binding signal was 3730 fluorescence intensity (a.u.).
“ATTAATTAATTATTAACTCACCCATTATTCCGCTCGCTAGCGGAGTCACCTAGTGCAG” was tested, and the binding signal was 47800 fluorescence intensity (a.u.).
With “ATTCCAATTCCTTGCTAATAGATACACTGACAAAGTGGCTCGGAGTCACCTAGTGCAG” the binding signal was 5010 fluorescence intensity (a.u.).
For “GAATTGGCTATTAGATTGACTATAGATGAATTGAAGTTAGCGGAGTCACCTAGTGCAG”, the binding signal was 15800 fluorescence intensity (a.u.).
With “TTGCTAATGATGAATTAATTAGGCTTAATAAATTCGTCTCCGGAGTCACCTAGTGCAG” the binding signal was 28300 fluorescence intensity (a.u.).
“ATTTTCTTGTGATTTGATTCATCATCAAATGTTCATTAAGCGGAGTCACCTAGTGCAG” was tested, and the binding signal was 5680 fluorescence intensity (a.u.).
With “ATACTAATTTATAGTTGATGATAACATAATACGAAATGAACGGAGTCACCTAGTGCAG” the binding signal was 21400 fluorescence intensity (a.u.).
For “TTGGTGTAATTGACATGCGGGCCCACAATTTTATTATTTTCGGAGTCACCTAGTGCAG”, the binding signal was 23800 fluorescence intensity (a.u.).
“GTGACAGACTGACAGTGTGAGTGTCAAGAAATGACTGTGACGGAGTCACCTAGTGCAG” was tested, and the binding signal was 15600 fluorescence intensity (a.u.).
With “ATTTTAAACTAATATTTGACTGCATCATGCTGGTTTTAATCGGAGTCACCTAGTGCAG” the binding signal was 5890 fluorescence intensity (a.u.).
“GCTTTCCAACACAAATTAGATTTGTTTGACGACATTTATCCGGAGTCACCTAGTGCAG” was tested, and the binding signal was 8660 fluorescence intensity (a.u.).
For “TAATATTTTATTTAATTATTTAAGTCACATGCAAATGATGCGGAGTCACCTAGTGCAG”, the binding signal was 5200 fluorescence intensity (a.u.).
For “TCAAATCAAATTTGAATCAAAATCTAGCCAAGATTTGTATCGGAGTCACCTAGTGCAG”, the binding signal was 14600 fluorescence intensity (a.u.).
With “TTATAAATTATTAAGACAACTATTATGGTATTATCAAATCCGGAGTCACCTAGTGCAG” the binding signal was 3800 fluorescence intensity (a.u.).
For “TTTGTTTAATCAGTTTATTATTAGATAATGCAAGCATGCCCGGAGTCACCTAGTGCAG”, the binding signal was 6750 fluorescence intensity (a.u.).
With “CTGTAGAATTAATGGATGGTTAATCCGGGCTTAATTGGTTCGGAGTCACCTAGTGCAG” the binding signal was 9750 fluorescence intensity (a.u.).
“AGAGGAATTAATTATGCAAAACATGGGCCACAAATTGAATCGGAGTCACCTAGTGCAG” was tested, and the binding signal was 16500 fluorescence intensity (a.u.).
In the case of “CTTCAAAATTTTGATACTAACTGGCTAAGTAATCATCCTACGGAGTCACCTAGTGCAG”, the binding signal is reported as 9340 fluorescence intensity (a.u.).
In the case of “TTGACATGTCAAATTGGATATACGAACACACATTTGAAGTCGGAGTCACCTAGTGCAG”, the binding signal is reported as 11500 fluorescence intensity (a.u.).
In the case of “TTAGGAGATACTATTACTAATTGAGTGTGTTACTCAACGTCGGAGTCACCTAGTGCAG”, the binding signal is reported as 5520 fluorescence intensity (a.u.).
In the case of “TCTGTAATTACTATTATTTTCTAAATTTATTTGCATATGACGGAGTCACCTAGTGCAG”, the binding signal is reported as 21500 fluorescence intensity (a.u.).
“TATAGTTAAATAATTGGCCATGTATTGATATGGTGCAAATCGGAGTCACCTAGTGCAG” was tested, and the binding signal was 11700 fluorescence intensity (a.u.).
For “TTCTTGCTGGATTGACGATTCTGCAGTCTCGTGGCTCAGACGGAGTCACCTAGTGCAG”, the binding signal was 6440 fluorescence intensity (a.u.).
In the case of “CACCAACTAATTTCATTGGAATTTTGTGGGAGGTGGAGGGCGGAGTCACCTAGTGCAG”, the binding signal is reported as 9810 fluorescence intensity (a.u.).
